In the supplement of paper PMC8813932:
Structures can show the parent of a compound that is named as a salt. ± gives the standard deviation of the averaged measurements. Some of the results follow. Most values come without repeats; read them as rough.

Assays:
Assay in all cases: log2 surviving fraction relative to plate median (drug vs vehicle, or drug+dl922-947 vs dl922-947 alone); ovarian cancer lines: OVCAR4 is platinum-sensitive while Ov4Cis resists cisplatin and Ov4Carbo carboplatin; higher = more cell survival
Details in all cases: compound concentration: 10 uM, 192 h
OVCAR4 = test system: OVCAR4
Ov4Carbo = test system: Ov4Carbo
Ov4Cis = test system: Ov4Cis
[1] = dl922-947 oncolytic adenovirus co-treatment: MOI 10
[2] = dl922-947 oncolytic adenovirus co-treatment: none

Row | Structure (SMILES) | log2 surviving fraction (OVCAR4; [1]) | log2 surviving fraction (OVCAR4; [2]) | log2 surviving fraction (Ov4Carbo; [1]) | log2 surviving fraction (Ov4Carbo; [2]) | log2 surviving fraction (Ov4Cis; [1]) | log2 surviving fraction (Ov4Cis; [2])
1 | Cc1cccc(N(C)C(=S)Oc2ccc3ccccc3c2)c1 [Tolnaftate] | 0.609 ± 0.6 | -0.732 ± 1.1 | 0.355 | 0.675 | -0.0701 | 0.738
2 | COc1cc(C(C)=O)ccc1OCCCN1CCC(c2noc3cc(F)ccc23)CC1 [Iloperidone (Fanapt)] | 0.00183 ± 0.66 | -0.436 ± 0.041 | -0.13 | 0.265 | 0.0664 | 0.067
3 | CN1CCN(C2=Nc3ccccc3Oc3ccc(Cl)cc32)CC1 [Loxapine Succinate] | -1.28 ± 0.61 | -0.439 ± 0.52 | -0.167 | -1.14 | -0.515 | -1.52
4 | CC(C)CN(C[C@@H](O)[C@H](Cc1ccccc1)NC(=O)O[C@H]1CCOC1)S(=O)(=O)c1ccc(N)cc1 [Amprenavir (Agenerase)] | 0.557 ± 0.64 | 0.453 ± 0.48 | 0.28 | 0.474 | 0.584 | 0.456
5 | CCOC(=O)n1ccn(C)c1=S [Carbimazole] | 0.169 ± 0.68 | -0.522 ± 0.4 | -0.525 | -0.626 | -0.378 | -0.221
6 | CCCCCCCCCCCCCCCC[N+](C)(C)C [Cetrimonium Bromide] | -8.61 ± 0.38 | -7.28 ± 11 | -7.5 | -10.5 | -8.77 | -13.2
7 | CC1(C)[C@H](C(=O)O)N2C(=O)C[C@H]2S1(=O)=O [Sulbactam sodium (Unasyn)] | 0.436 ± 0.25 | -0.865 ± 1.9 | 1.6 | 0.11 | 0.37 | 0.341
8 | CCN(CC)CCOC(=O)C1(C2CCCCC2)CCCCC1 [Dicyclomine HCl] | -0.0762 ± 0.049 | -0.217 ± 0.96 | -1.22 | -1.35 | -0.0263 | 0.358
9 | C=C1CC[C@@]2(O)[C@H]3Cc4ccc(O)c5c4[C@@]2(CCN3CC2CC2)[C@H]1O5 [Nalmefene HCl] | 0.664 ± 0.097 | 0.699 ± 0.79 | 0.808 | 1.06 | 0.602 | 0.472
10 | COc1ccccc1OCC(O)COC(N)=O (configuration not stated) [Methocarbamol (Robaxin)] | 0.0262 ± 0.28 | 0.283 ± 0.4 | -1.29 | 0.902 | 0.137 | 0.134
11 | Cc1nc2n(c(=O)c1CCN1CCC(c3noc4cc(F)ccc34)CC1)CCCC2O (configuration not stated) [Paliperidone (Invega)] | -0.275 ± 0.022 | 0.0891 ± 0.092 | 0.333 | 1.12 | 0.679 | -0.409
12 | O=C(O)/C=C/c1ccc(Cn2ccnc2)cc1 [Ozagrel] | 0.493 ± 0.17 | 0.309 ± 0.12 | -0.195 | -0.383 | 0.776 | 0.596
13 | COc1cccc2c1C(=O)c1c(O)c3c(c(O)c1C2=O)C[C@@](O)(C(C)=O)C[C@@H]3O[C@H]1C[C@H](N)[C@H](O)[C@H](C)O1 [Daunorubicin HCl (Daunomycin HCl)] | -10.9 ± 0.82 | -12 ± 6.2 | -9.38 | -12.7 | -10.3 | -15.9
14 | C/C=C(\C)C(=O)N[C@@H](c1ccccc1)[C@@H](O)C(=O)O[C@H]1C[C@@]2(O)[C@@H](OC(=O)c3ccccc3)[C@@H]3[C@]4(OC(C)=O)CO[C@@H]4C[C@H](O)[C@@]3(C)C(=O)[C@H](OC(C)=O)C(=C1C)C2(C)C [Cephalomannine] | -7.26 ± 0.079 | -9.9 ± 5.1 | -5.96 | -9.84 | -5.6 | -9.98
15 | CNC(=O)CN(CCN(CCN(CC(=O)O)CC(=O)NC)CC(=O)O)CC(=O)O.O.[Gd] [Gadodiamide (Omniscan)] | -0.756 ± 0.36 | -0.116 ± 0.037 | 0.371 | -0.314 | 0.0506 | -0.508
16 | C[C@H]1COc2c(N3CCN(C)CC3)c(F)cc3c(=O)c(C(=O)O)cn1c23 [Levofloxacin (Levaquin)] | 0.895 ± 0.44 | 0.377 ± 0.23 | -0.443 | 0.438 | -0.63 | 0.201
17 | O=C(O)CCc1nc(-c2ccccc2)c(-c2ccccc2)o1 [Oxaprozin] | 0.765 ± 1.1 | 1.23 ± 0.15 | 0.63 | 0.738 | 0.55 | 0.104
18 | COc1c2ccoc2cc2oc(=O)ccc12 [Bergapten] | 0.381 ± 0.27 | 0.513 ± 0.31 | 1.16 | 0.732 | 0.36 | 0.925
19 | CC1C=CC=CCCC=CC=CC=CC=CC(OC2OC(C)C(O)C(N)C2O)CC2OC(O)(CC(O)C(O)CCC(O)CC(O)CC(O)CC(=O)OC(C)C(C)C1O)CC(O)C2C(=O)O (configuration not stated) [Nystatin (Mycostatin)] | -0.489 ± 0.96 | 0.562 ± 1.4 | 0.181 | -0.107 | -0.658 | 0.415
20 | C[C@]12C=CC(=O)N[C@@H]1CC[C@@H]1[C@@H]2CC[C@]2(C)[C@@H](C(=O)Nc3cc(C(F)(F)F)ccc3C(F)(F)F)CC[C@@H]12 [Dutasteride] | 0.671 ± 0.09 | -3.06 ± 5.5 | 1.1 | 1.96 | -0.0557 | -0.249
21 | CCCCCCCCCCOc1cc2c(O)c(C(=O)OCC)cnc2cc1OCC [Decoquinate] | 0.974 ± 0.36 | 0.832 ± 0.68 | 0.536 | 0.849 | 0.378 | 0.909
22 | CC(=O)OCC(=O)[C@@]12N=C(C)O[C@@H]1C[C@H]1[C@@H]3CCC4=CC(=O)C=C[C@]4(C)[C@H]3[C@@H](O)C[C@@]12C [Deflazacort (Calcort)] | 0.973 ± 0.26 | -0.142 ± 0.23 | 0.838 | 0.0229 | 1.5 | -1.66
